The results in this text go back to US11618753B2 (priority 2018, dated 2023).

Structures are written as SMILES.

The assay deals with MLKL phosphorylation, HT29-L23 human colorectal adenocarcinoma cells. Kind of assay: cells. To be noted: read-out: pMLKL HCS Cell Assay (IC50, uM).
On to `COc1ncc(-c2cc(CN3CC(F)(F)C3)c3c(N)ncnn23)cc1C(=O)N[C@@H]1CN(C(=O)C(C)(C)C(F)(F)F)C[C@@H]1F` [Example 1618, 5-{4-amino-5-[(3,3-difluoroazetidin-1-yl)methyl]pyrrolo[2,1-f][1,2,4]triazin-7-yl}-N-[(3R,4S)-4-fluoro-1-(3,3,3-trifluoro-2,2-dimethylpropanoyl)pyrrolidin-3-yl]-2-methoxypyridine-3-carboxamide], for which the IC50 was found to be 0.00068 µM. The same measure for `COc1ncc(-c2c(C#N)cc3c(N)ncnn23)cc1C(=O)N[C@@H]1CN(C(=O)C2(C(F)(F)F)CC2)C[C@@H]1F` [Example 554, 5-(4-amino-6-cyanopyrrolo[2,1-f][1,2,4]triazin-7-yl)-N-((3R,4S)-4-fluoro-1-(1-(trifluoromethyl)cyclopropane-1-carbonyl)pyrrolidin-3-yl)-2-methoxynicotinamide]: 0.11 µM; for `COc1ncc(-c2cc(C(F)(F)F)c3c(N)ncnn23)cc1C(=O)N[C@@H]1CN(S(=O)(=O)Cc2ccccc2Cl)C[C@@H]1F` [Example 1493, 5-[4-amino-5-(trifluoromethyl)pyrrolo[2,1-f][1,2,4]triazin-7-yl]-N-[(3R,4S)-1-[(2-chlorophenyl)methanesulfonyl]-4-fluoropyrrolidin-3-yl]-2-methoxypyridine-3-carboxamide]: 0.011 µM; for `COc1ncc(-c2cc(C(F)(F)F)c3c(N)ncnn23)cc1C(=O)NC1CN(C(=O)C(O)(C(F)(F)F)C(F)(F)F)CC1(F)F` (centres unmarked) [Example 1835, 5-(4-amino-5-(trifluoromethyl)pyrrolo[2,1-f][1,2,4]triazin-7-yl)-N-(4,4-difluoro-1-(3,3,3-trifluoro-2-hydroxy-2-(trifluoromethyl)propanoyl)pyrrolidin-3-yl)-2-methoxynicotinamide]: 0.11 µM. Regarding `COc1ncc(-c2cc(C(=O)NCC#N)c3c(N)ncnn23)cc1C(=O)N1CCC[C@@H](Cc2ccc(F)cc2)C1` [Example 468, 4-amino-N-(cyanomethyl)-7-{5-[(3S)-3-[(4-fluorophenyl)methyl]piperidine-1-carbonyl]-6-methoxypyridin-3-yl}pyrrolo[2,1-f][1,2,4]triazine-5-carboxamide], the IC50 amounted to 0.037 µM.

With `COc1ncc(-c2cc(C(F)(F)F)c3c(N)ncnn23)cc1C(=O)NC1CN(Cc2ccc(OC(F)(F)F)c(F)c2)CC1F` (racemic) [Example 236, 5-[4-amino-5-(trifluoromethyl)pyrrolo[2,1-f][1,2,4]triazin-7-yl]-N-(4-fluoro-1-{[3-fluoro-4-(trifluoromethoxy)phenyl]methyl}pyrrolidin-3-yl)-2-methoxypyridine-3-carboxamide], the IC50 turned out to be 0.21 µM. The same measure for `CCOc1ccc(-c2cc(C(F)(F)F)c3c(N)ncnn23)cc1C(=O)N[C@@H]1CN(C(=O)[C@@](C)(O)C(F)(F)F)C[C@@H]1F` [Example 1107, 5-[4-amino-5-(trifluoromethyl)pyrrolo[2,1-f][1,2,4]triazin-7-yl]-2-ethoxy-N-[(3R,4S)-4-fluoro-1-[(2R)-3,3,3-trifluoro-2-hydroxy-2-methylpropanoyl]pyrrolidin-3-yl]benzamide]: 0.0047 µM; for `Nc1ncnn2c(-c3cccc(C(=O)N[C@@H]4CN(C(=O)C5CCC(F)(F)C5)C[C@@H]4F)c3)cc(CN3CC(F)(F)C3)c12` (stereo partly drawn) [Example 1178, 3-{4-amino-5-[(3,3-difluoroazetidin-1-yl)methyl]pyrrolo[2,1-f][1,2,4]triazin-7-yl}-N-[(3R,4S)-1-(3,3-difluorocyclopentanecarbonyl)-4-fluoropyrrolidin-3-yl]benzamide]: 0.0018 µM.

For the molecule `Nc1ncnn2c(-c3ccc(F)c(C(=O)NCC4CCCOC4c4ccccc4)c3)cc(C(F)(F)F)c12` (centres unmarked) [Example 250, 5-[4-amino-5-(trifluoromethyl)pyrrolo[2,1-f][1,2,4]triazin-7-yl]-2-fluoro-N-[(2-phenyloxan-3-yl)methyl]benzamide], the IC50 came to 0.072 µM. In the case of `CC(CCNC(=O)c1cccc(-c2ccc3c(N)ncnn23)c1)c1ccccc1` (centres unmarked) [Example 1, 3-{4-aminopyrrolo[2,1-f][1,2,4]triazin-7-yl}-N-(3-phenylbutyl)benzamide] it was 0.077 µM; in that of `COc1ncc(-c2cc(CN3CC4(CCC4)C3)c3c(N)ncnn23)cc1C(=O)N[C@@H]1CN(C(=O)[C@@](C)(O)C(F)(F)F)C[C@@H]1F` [Example 1550, 5-[4-amino-5-({2-azaspiro[3,3]heptan-2-yl}methyl)pyrrolo[2,1-f][1,2,4]triazin-7-yl]-N-[(3R,4S)-4-fluoro-1-[(2R)-3,3,3-trifluoro-2-hydroxy-2-methylpropanoyl]pyrrolidin-3-yl]-2-methoxypyridine-3-carboxamide], 0.0029 µM.

Take `COc1ncc(-c2cc(CN3CCC(F)(F)CC3)c3c(N)ncnn23)cc1C(=O)N[C@@H]1CN(C(=O)OCC(C)C(F)(F)F)C[C@@H]1F` (stereo partly drawn) [Example 1533, 3,3,3-trifluoro-2-methylpropyl (3R,4S)-3-(5-{4-amino-5-[(4,4-difluoropiperidin-1-yl)methyl]pyrrolo[2,1-f][1,2,4]triazin-7-yl}-2-methoxypyridine-3-amido)-4-fluoropyrrolidine-1-carboxylate]: the IC50 came to 0.0019 µM. The same measure for `CC(CC(=O)N1C[C@H](F)[C@H](NC(=O)c2cc(-c3cc(C(F)(F)F)c4c(N)ncnn34)cc(F)c2Cl)C1)C(F)(F)F` (mixture of isomers) [Example 634, 5-[4-amino-5-(trifluoromethyl)pyrrolo[2,1-f][1,2,4]triazin-7-yl]-2-chloro-3-fluoro-N-[(3R,4S)-4-fluoro-1-(4,4,4-trifluoro-3-methylbutanoyl)pyrrolidin-3-yl]benzamide]: 0.0028 µM; for `COc1ncc(-c2c(C#N)cc3c(N)ncnn23)cc1C(=O)N[C@@H]1CN(C(=O)C2CC(F)(F)C2)C[C@@H]1F` [Example 552, 5-(4-amino-6-cyanopyrrolo[2,1-f][1,2,4]triazin-7-yl)-N-((3R,4S)-1-(3,3-difluorocyclobutane-1-carbonyl)-4-fluoropyrrolidin-3-yl)-2-methoxynicotinamide]: 0.369 µM. The same measure for `COc1cc(-c2cc(C(F)(F)F)c3c(N)ncnn23)cc(C(=O)N[C@@H]2CN(C(=O)CC(C(F)(F)F)C(F)(F)F)C[C@@H]2F)c1OC` [Example 595, 5-[4-amino-5-(trifluoromethyl)pyrrolo[2,1-f][1,2,4]triazin-7-yl]-N-[(3R,4S)-4-fluoro-1-[4,4,4-trifluoro-3-(trifluoromethyl)butanoyl]pyrrolidin-3-yl]-2,3-dimethoxybenzamide]: 0.202 µM; for `COc1ncc(-c2cc(C(F)(F)F)c3c(N)ncnn23)cc1C(=O)N[C@@H]1CN(S(=O)(=O)Cc2ccccc2[N+](=O)[O-])C[C@@H]1F` [Example 1487, 5-[4-amino-5-(trifluoromethyl)pyrrolo[2,1-f][1,2,4]triazin-7-yl]-N-[(3R,4S)-4-fluoro-1-[(2-nitrophenyl)methanesulfonyl]pyrrolidin-3-yl]-2-methoxypyridine-3-carboxamide]: 0.031 µM; for `Cc1cc(F)c(-c2cc(C(F)(F)F)c3c(N)ncnn23)cc1C(=O)N[C@@H]1CN(C(=O)C2(O)CCCC2)C[C@@H]1F` [Example 803, 5-[4-amino-5-(trifluoromethyl)pyrrolo[2,1-f][1,2,4]triazin-7-yl]-4-fluoro-N-[(3R,4S)-4-fluoro-1-(1-hydroxycyclopentanecarbonyl)pyrrolidin-3-yl]-2-methylbenzamide]: 0.0034 µM. Turning to `COc1ncc(-c2cc(C(F)(F)F)c3c(N)ncnn23)cc1C(=O)N[C@@H]1CN(C(=O)C2CCCC2)C[C@@H]1C` [Example 19, 5-[4-amino-5-(trifluoromethyl)pyrrolo[2,1-f][1,2,4]triazin-7-yl]-N-[(3S,4S)-1-cyclopentanecarbonyl-4-methylpyrrolidin-3-yl]-2-methoxypyridine-3-carboxamide], the half-inhibitory concentration (IC50) amounted to 0.047 µM.

As to `Cc1ccc(-c2cc(C(F)(F)F)c3c(N)ncnn23)cc1C(=O)N[C@@H]1CN(C(=O)c2cccc(F)c2Cl)C[C@@H]1F` [Example 1034, 5-[4-amino-5-(trifluoromethyl)pyrrolo[2,1-f][1,2,4]triazin-7-yl]-N-[(3R,4S)-1-(2-chloro-3-fluorobenzoyl)-4-fluoropyrrolidin-3-yl]-2-methylbenzamide], the IC50 was found to be 0.0011 µM.

As to `COc1ncc(-c2cc(C(F)(F)F)c3c(N)ncnn23)cc1C(=O)N1CCCC(C(C)(O)c2ccc(F)cc2)C1` (centres unmarked) [Example 1733, (5-(4-amino-5-(trifluoromethyl)pyrrolo[2,1-f][1,2,4]triazin-7-yl)-2-methoxypyridin-3-yl)(3-(1-(4-fluorophenyl)-1-hydroxyethyl)piperidin-1-yl)methanone], the IC50 was 0.234 µM. The same measure for `COc1ncc(-c2cc(CN3CCC(F)(F)CC3)c3c(N)ncnn23)cc1C(=O)NC1CN(C(=O)OC(C(C)(C)C)C(F)(F)F)C[C@@H]1F` (stereo partly drawn) [Example 1539, 1,1,1-trifluoro-3,3-dimethylbutan-2-yl (3R,4S)-3-(5-{4-amino-5-[(4,4-difluoropiperidin-1-yl)methyl]pyrrolo[2,1-f][1,2,4]triazin-7-yl}-2-methoxypyridine-3-amido)-4-fluoropyrrolidine-1-carboxylate]: 0.446 µM. The same measure for `Nc1ncnn2c(-c3cc(F)c(Cl)c(C(=O)N[C@@H]4CN(C(=O)C5(F)CC5)C[C@@H]4F)c3)cc(C(F)(F)F)c12` [Example 636, 5-[4-amino-5-(trifluoromethyl)pyrrolo[2,1-f][1,2,4]triazin-7-yl]-2-chloro-3-fluoro-N-[(3R,4S)-4-fluoro-1-(1-fluorocyclopropanecarbonyl)pyrrolidin-3-yl]benzamide]: 0.013 µM; for `Cc1ccc(-c2cc(C(F)(F)F)c3c(N)ncnn23)cc1C(=O)N[C@@H]1CN(C(=O)[C@@](C)(O)C(F)(F)F)C[C@@H]1F` [Example 993, 5-[4-amino-5-(trifluoromethyl)pyrrolo[2,1-f][1,2,4]triazin-7-yl]-N-[(3R,4S)-4-fluoro-1-[(2R)-3,3,3-trifluoro-2-hydroxy-2-methylpropanoyl]pyrrolidin-3-yl]-2-methylbenzamide]: 0.0014 µM.
